# System: S. pneumoniae ATCC 49619
# Test: Intraperitoneal (IP) mouse infection model (ED50)
# Type: in vivo
# Conditions: Streptococcus pneumoniae, ATCC49619, ip
row,SMILES,ED50 [mg/kg]
1,"CC[C@H]1OC(=O)[C@H](C)[C@@H](O[C@H]2C[C@@](C)(OC)[C@@H](O)[C@H](C)O2)[C@H](C)[C@@H](O[C@@H]2O[C@H](C)C[C@H](N(C)C)[C@H]2O)[C@](C)(O)C[C@@H](C)CN(C)[C@H](C)[C@@H](O)[C@]1(C)O [AZI, azithromycin]",15
2,"CC[C@H]1OC(=O)[C@H](C)C(=O)[C@H](C)[C@@H](O[C@@H]2O[C@H](C)C[C@H](N(C)C)[C@H]2O)[C@](C)(OC)C[C@@H](C)C(=O)[C@H](C)[C@H]2N(CCCCn3cnc(-c4cccnc4)c3)C(=O)O[C@]12C [TEL, telithromycin]",1
3,"CC[C@H]1OC(=O)[C@@](C)(F)C(=O)[C@H](C)[C@@H](OC2OC(C)CC(N(C)C)C2O)[C@@](C)(OC)C[C@@H](C)C(=O)[C@H](C)[C@H]2N(CCCCn3cc(-c4cccc(N)c4)nn3)C(=O)O[C@]12C (stereo partly drawn) [CEM-101, 11-N-4-(3-aminophenyl)-[1,2,3]triazol-1-yl]-butyl}-5-desosaminyl-3-oxo-2-fluoro-erythronolide A,-11,12-cyclic carbamate]",2.5

# — US9901592B2 (priority 2008, dated 2018)
